Data published in the supplement of paper PMC4604168 (melanoma cell lines).
Some of the results follow. Most values come without repeats; read them as rough.

Experiments:
Experiment in all cases: cell count relative to DMSO control; melanoma cells; higher = more viable cells
Conditions in all cases: library dose: low library concentration; 72 h
MZ2-MEL = test system: MZ2-MEL
MeWo = test system: MeWo
RPMI7951 = test system: RPMI7951
RVH-421 = test system: RVH-421
SkMel28 = test system: SkMel28
SkMel30 = test system: SkMel30
SkMel5 = test system: SkMel5
UACC257 = test system: UACC257
UACC62 = test system: UACC62
WM115 = test system: WM115
WM1716 = test system: WM1716
WM1745 = test system: WM1745
WM3526 = test system: WM3526
WM3619 = test system: WM3619
WM451Lu = test system: WM451Lu
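Further: cell number obtained by counting DAPI-stained nuclei in high-throughput microscope images with image analysis software, screen run in 1,536-well plates.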

Compound | cell count (MZ2-MEL) [%] | cell count (MeWo) [%] | cell count (RPMI7951) [%] | cell count (RVH-421) [%] | cell count (SkMel28) [%] | cell count (SkMel30) [%] | cell count (SkMel5) [%] | cell count (UACC257) [%] | cell count (UACC62) [%] | cell count (WM115) [%] | cell count (WM1716) [%] | cell count (WM1745) [%] | cell count (WM3526) [%] | cell count (WM3619) [%] | cell count (WM451Lu) [%]
CCc1ccc(CCOc2ccc(CC3SC(=O)NC3=O)cc2)nc1 (stereo not given) [pioglitazone] + COc1ccc2c(c1)CCC1C2CCC2(C)C(NCCCCCCN3C(=O)C=CC3=O)CCC12 [U73122] (first compound 2 µM, partner dose 0.4 µM) | 94.4 | 100 | 102 | 116 | 98.2 | 94.6 | 86.7 | 75.1 | 105 | 92.2 | 96.4 | 86.2 | 95.3 | 132 | 84.3
CC(C)(C)c1cnc(CSc2cnc(NC(=O)C3CCNCC3)s2)o1 + O=C(O)C(=O)Nc1sc2c(c1C(=O)O)CCNC2 [TCS401] (first compound 0.01 µM, partner dose 1.66667 µM) | 101 | 98.3 | 90.3 | 113 | 76.3 | 113 | 100 | 59.7 | 91.4 | 96.2 | 87.8 | 83.9 | 116 | 107 | 84.2
CC(C)(C)c1cnc(CSc2cnc(NC(=O)C3CCNCC3)s2)o1 + CCCCCCCCCCCC1=C(O)C(=O)C=C(O)C1=O [Embelin] (first compound 0.01 µM, partner dose 1.2 µM) | 101 | 103 | 95.3 | 100 | 107 | 103 | 116 | 99.3 | 85.1 | 93 | 102 | 86.9 | 113 | 126 | 132
CC(C)(C)c1cnc(CSc2cnc(NC(=O)C3CCNCC3)s2)o1 + c1cc(-c2cnn3cc(-c4ccc(OCCN5CCCCC5)cc4)cnc23)ccn1 [Dorsomorphin] (first compound 0.01 µM, partner dose 0.4 µM) | 97.4 | 104 | 97.7 | 74.7 | 96.3 | 79.5 | 83.6 | 72.8 | 78.6 | 88.1 | 98.1 | 74 | 99.4 | 114 | 113
Cc1ccc(NC(=O)c2cccc(N(C)C)c2)cc1NC(=O)c1ccc(O)cc1 + O=C(O)C(=O)Nc1sc2c(c1C(=O)O)CCNC2 [TCS401] (first compound 2 µM, partner dose 1.66667 µM) | 79 | 92.9 | 89.6 | 93.6 | 86.5 | 85.9 | 91.1 | 81.9 | 93.4 | 97.8 | 110 | 81.8 | 82.4 | 114 | 90.8
CN(NC(=O)CC(=O)NN(C)C(=S)c1ccccc1)C(=S)c1ccccc1 + Cc1cc([N+](=O)[O-])ccc1NS(=O)(=O)c1cc(Cl)ccc1Cl [FH535] (first compound 0.006 µM, partner dose 1 µM) | 96.9 | 74.3 | 111 | 78.8 | 77.5 | 102 | 82.6 | 94.3 | 86.4 | 88.2 | 75.1 | 35 | 116 | 38.5 | 121
Cc1ccc(NC(=O)c2cccc(N(C)C)c2)cc1NC(=O)c1ccc(O)cc1 + COC(=O)c1sccc1S(=O)(=O)Nc1ccc(Nc2ccccc2)cc1OC [GSK0660] (first compound 2 µM, partner dose 1 µM) | 71.9 | 95.3 | 86.6 | 123 | 89.4 | 87.8 | 99 | 98.1 | 92.2 | 110 | 103 | 98.4 | 96.9 | 99.2 | 115
CCc1ccc(CCOc2ccc(CC3SC(=O)NC3=O)cc2)nc1 (stereo not given) [pioglitazone] + COc1ccc(-c2ccc3c(N4CCOCC4)nc(N4C[C@@H](C)O[C@@H](C)C4)nc3n2)cc1CO [KU0063794] (first compound 2 µM, partner dose 0.02 µM) | 102 | 93.7 | 95.8 | 117 | 99.6 | 82.3 | 89.8 | 88.2 | 94.5 | 107 | 110 | 91.3 | 116 | 146 | 105
CC(C)(C)c1cnc(CSc2cnc(NC(=O)C3CCNCC3)s2)o1 + CCc1ccc(CCOc2ccc(CC3SC(=O)NC3=O)cc2)nc1 [pioglitazone] (first compound 0.01 µM, partner dose 2 µM) | 100 | 106 | 89.5 | 84.9 | 113 | 91.7 | 97.9 | 83.6 | 98.4 | 96.3 | 90.4 | 92.5 | 91.2 | 123 | 97
CCc1ccc(CCOc2ccc(CC3SC(=O)NC3=O)cc2)nc1 (stereo not given) [pioglitazone] + CC(C)CCN1c2nc(Nc3cc(F)c(O)c(F)c3)ncc2N(C)C(=O)C1C [BID1870] (first compound 2 µM, partner dose 0.2 µM) | 103 | 86.3 | 91 | 93.3 | 79.7 | 91 | 97.1 | 81.8 | 73.5 | 93 | 92.2 | 88.9 | 69.2 | 101 | 98.2
CC(C)(C)c1cnc(CSc2cnc(NC(=O)C3CCNCC3)s2)o1 + O=C1NC(=O)/C(=C/c2ccc(-c3ccc(F)cc3O)o2)S1 [AS252424] (first compound 0.01 µM, partner dose 1 µM) | 101 | 97.5 | 103 | 90.2 | 90.7 | 111 | 107 | 93.9 | 101 | 88.7 | 99.1 | 80.3 | 113 | 80.7 | 117
CCc1ccc(CCOc2ccc(CC3SC(=O)NC3=O)cc2)nc1 (stereo not given) [pioglitazone] + Cn1cc(/C=C2\C(=O)Nc3cccnc32)c2ccccc21 [GW441756] (first compound 2 µM, partner dose 0.4 µM) | 94.2 | 100 | 102 | 90.6 | 96.1 | 120 | 90.5 | 92.2 | 96.5 | 99.2 | 98.9 | 94.8 | 102 | 110 | 130
CC(C)(C)c1cnc(CSc2cnc(NC(=O)C3CCNCC3)s2)o1 + O=c1cc(-c2cccc3c2Sc2ccccc2S3)oc(N2CCOCC2)c1 [KU55933] (first compound 0.01 µM, partner dose 1 µM) | 102 | 88 | 90.3 | 94.2 | 75.7 | 108 | 99.2 | 91.8 | 83.3 | 102 | 114 | 98.5 | 90.2 | 104 | 103
COc1cc2c(Oc3ccc4[nH]c(C)cc4c3F)ncnc2cc1OCCCN1CCCC1 [cediranib] + Cc1cc([N+](=O)[O-])ccc1NS(=O)(=O)c1cc(Cl)ccc1Cl [FH535] (first compound 0.4 µM, partner dose 1 µM) | 94.3 | 99.8 | 95.1 | 98.6 | 91.2 | 94.1 | 93.8 | 103 | 95.8 | 87.5 | 71 | 98.8 | 101 | 109 | 95.9
COc1cc2c(Oc3ccc4[nH]c(C)cc4c3F)ncnc2cc1OCCCN1CCCC1 [cediranib] + COc1cc(N2CCC(N3CCN(C)CC3)CC2)ccc1Nc1ncc(Cl)c(Nc2ccccc2S(=O)(=O)C(C)C)n1 [NVP-TAE684] (first compound 0.4 µM, partner dose 0.08 µM) | 93.7 | 87.2 | 99 | 109 | 89.9 | 105 | 90.6 | 68.4 | 80 | 99.7 | 99.8 | 71 | 89.4 | 91.8 | 103
CCc1ccc(CCOc2ccc(CC3SC(=O)NC3=O)cc2)nc1 (stereo not given) [pioglitazone] + COc1cc2ncnc(Nc3ccc(Oc4ccccc4)cc3)c2cc1OC [SrcI1] (first compound 2 µM, partner dose 2 µM) | 90.9 | 95.5 | 104 | 133 | 112 | 114 | 124 | 87.4 | 96.2 | 101 | 120 | 87.3 | 106 | 102 | 130
CC(C)(C)c1cnc(CSc2cnc(NC(=O)C3CCNCC3)s2)o1 + Oc1cc(-c2nc(-c3ccccc3)[nH]c2-c2ccncc2)ccc1Cl [L779450] (first compound 0.01 µM, partner dose 0.2 µM) | 78.1 | 107 | 78 | 97.9 | 91.6 | 95.8 | 112 | 89 | 85.3 | 91.9 | 115 | 75.6 | 86.1 | 95.5 | 117
Cc1ccc(NC(=O)c2cccc(N(C)C)c2)cc1NC(=O)c1ccc(O)cc1 + CCCCCCCCCCCC1=C(O)C(=O)C=C(O)C1=O [Embelin] (first compound 2 µM, partner dose 1.2 µM) | 77.6 | 96.6 | 93.7 | 98.7 | 103 | 89.9 | 103 | 103 | 95.8 | 105 | 105 | 86.4 | 97.8 | 108 | 104
COc1cc2c(Oc3ccc4[nH]c(C)cc4c3F)ncnc2cc1OCCCN1CCCC1 [cediranib] + Oc1cc(-c2nc(-c3ccccc3)[nH]c2-c2ccncc2)ccc1Cl [L779450] (first compound 0.4 µM, partner dose 0.2 µM) | 78.6 | 96.8 | 95.5 | 86.2 | 85.2 | 103 | 83.7 | 80 | 54.6 | 80.2 | 113 | 71.9 | 75.4 | 130 | 98.9
CC(C)(C)c1cnc(CSc2cnc(NC(=O)C3CCNCC3)s2)o1 + CC(C)CCN1c2nc(Nc3cc(F)c(O)c(F)c3)ncc2N(C)C(=O)C1C [BID1870] (first compound 0.01 µM, partner dose 0.2 µM) | 105 | 89.8 | 90.5 | 93.4 | 79.7 | 66.4 | 84.6 | 75.1 | 82.7 | 96.5 | 85.1 | 89.1 | 85.2 | 91.9 | 97.8
COc1cc2c(Oc3ccc4[nH]c(C)cc4c3F)ncnc2cc1OCCCN1CCCC1 [cediranib] + COc1ccc2c(c1)CCC1C2CCC2(C)C(NCCCCCCN3C(=O)C=CC3=O)CCC12 [U73122] (first compound 0.4 µM, partner dose 0.4 µM) | 100 | 119 | 74.7 | 98 | 90.8 | 105 | 107 | 106 | 88.3 | 86.6 | 82.2 | 98.4 | 109 | 94.4 | 107
